Measured values as given in the supplement of paper PMC8728848.
The list shows a part of the results.

Columns and labels:
Assay in all cases: glycan array binding signal (z-score within array); higher = stronger binding
Conditions in all cases: glycan notation: IUPAC condensed, linker removed
[1] = biological target: Gal(b1-4)GlcNAc(b1-2)Man(a1-3)[Gal(b1-4)GlcNAc(b1-2)Man(a1-6)]Man(b1-4)GlcNAc(b1-4)[Fuc(a1-6)]GlcNAc
Method in brief: (§1)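 Glycan array binding is given as a within-array Z-score, which can be read as non-binding when negative. The arrays, 3228 of them, came from the Consortium for Functional Glycomics database and were retained only where the protein sequence was available. Z-scores were averaged across arrays of the same protein sequence at different concentrations or buffers and across linkers.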

[2] = biological target: Gal(b1-4)GlcNAc(b1-2)Man(a1-3)[Gal(b1-4)GlcNAc(b1-2)Man(a1-6)][Gal(b1-4)GlcNAc(b1-4)]Man(b1-4)GlcNAc(b1-4)[Fuc(a1-6)]GlcNAc
Method in brief: as §1

[3] = biological target: Gal(b1-4)GlcNAc(b1-2)Man(a1-3)[Gal(b1-4)GlcNAc(b1-2)Man(a1-6)][GlcNAc(b1-4)]Man(b1-4)GlcNAc(b1-4)[Fuc(a1-6)]GlcNAc
Method in brief: as §1

[4] = biological target: Gal(b1-4)GlcNAc(b1-2)Man(a1-3)[GlcNAc(b1-2)Man(a1-6)]Man(b1-4)GlcNAc(b1-4)GlcNAc
Method in brief: as §1

[5] = biological target: Gal(b1-4)GlcNAc(b1-2)Man(a1-3)[GlcNAc(b1-4)][Gal(b1-4)GlcNAc(b1-2)Man(a1-6)]Man(b1-4)GlcNAc(b1-4)GlcNAc
Method in brief: as §1

[6] = biological target: Gal(b1-4)GlcNAc(b1-2)Man(a1-3)[Man(a1-6)]Man(b1-4)GlcNAc(b1-4)GlcNAc
Method in brief: as §1

[7] = biological target: Gal(b1-4)GlcNAc(b1-2)Man(a1-6)Man(b1-4)GlcNAc(b1-4)GlcNAc
Method in brief: as §1

[8] = biological target: Gal(b1-4)GlcNAc(b1-2)Man(a1-6)[GlcNAc(b1-2)Man(a1-3)]Man(b1-4)GlcNAc(b1-4)GlcNAc
Method in brief: as §1

[9] = biological target: Gal(b1-4)GlcNAc(b1-2)Man(a1-6)[Man(a1-3)]Man(b1-4)GlcNAc(b1-4)GlcNAc
Method in brief: as §1

[10] = biological target: Gal(b1-4)GlcNAc(b1-2)[Gal(b1-4)GlcNAc(b1-4)]Man(a1-3)[Gal(b1-4)GlcNAc(b1-2)Man(a1-6)]Man(b1-4)GlcNAc(b1-4)GlcNAc
Method in brief: as §1

[11] = biological target: Gal(b1-4)GlcNAc(b1-2)[Gal(b1-4)GlcNAc(b1-4)]Man(a1-3)[Gal(b1-4)GlcNAc(b1-2)[Gal(b1-4)GlcNAc(b1-6)]Man(a1-6)]Man(b1-4)GlcNAc(b1-4)GlcNAc
Method in brief: as §1

[12] = biological target: Gal(b1-4)GlcNAc(b1-2)[Gal(b1-4)GlcNAc(b1-4)]Man(a1-3)[GlcNAc(b1-4)][Gal(b1-4)GlcNAc(b1-2)Man(a1-6)]Man(b1-4)GlcNAc(b1-4)GlcNAc
Method in brief: as §1

[13] = biological target: Gal(b1-4)GlcNAc(b1-2)[Gal(b1-4)GlcNAc(b1-4)]Man(a1-3)[GlcNAc(b1-4)][Gal(b1-4)GlcNAc(b1-2)[Gal(b1-4)GlcNAc(b1-6)]Man(a1-6)]Man(b1-4)GlcNAc(b1-4)GlcNAc
Method in brief: as §1

[14] = biological target: Gal(b1-4)GlcNAc(b1-2)[Gal(b1-4)GlcNAc(b1-6)]Man(a1-6)[Gal(b1-4)GlcNAc(b1-2)Man(a1-3)]Man(b1-4)GlcNAc(b1-4)GlcNAc
Method in brief: as §1

[15] = biological target: Gal(b1-4)GlcNAc(b1-2)[Gal(b1-4)GlcNAc(b1-6)]Man(a1-6)[Gal(b1-4)GlcNAc(b1-2)Man(a1-3)]Man(b1-4)GlcNAc(b1-4)[Fuc(a1-6)]GlcNAc
Method in brief: as §1

[16] = biological target: Gal(b1-4)GlcNAc(b1-2)[Gal(b1-4)GlcNAc(b1-6)]Man(a1-6)[GlcNAc(b1-4)][Gal(b1-4)GlcNAc(b1-2)Man(a1-3)]Man(b1-4)GlcNAc(b1-4)GlcNAc
Method in brief: as §1

[17] = biological target: Gal(b1-4)GlcNAc(b1-2)[Gal(b1-4)GlcNAc(b1-6)]Man(a1-6)[GlcNAc(b1-4)][Gal(b1-4)GlcNAc(b1-2)[Gal(b1-4)GlcNAc(b1-4)]Man(a1-3)]Man(b1-4)GlcNAc(b1-4)[Fuc(a1-6)]GlcNAc
Method in brief: as §1

[18] = biological target: Gal(b1-4)GlcNAc(b1-3)Gal(b1-3)GalNAc
Method in brief: as §1

[19] = biological target: Gal(b1-4)GlcNAc(b1-3)Gal(b1-3)GlcNAc
Method in brief: as §1

B1: Epa3to1 (Candida glabrata) (protein)
chain: MGSSHHHHHHSSGLVPRGSHMKRELSSQNPFGYPIGCSPQDVAIIPGLTMELYSYPIVSGTPPNCYDASYVDPEYPRTGYLKRKMVGKSTGVTGNLNYKYSVEKACMVKYGNLPAGYNYNEPLTVSNFTMILYGYFKAQTTGLHTFFVNADDLLYINFGAGNAFDCCKREDSKTKLGEYVAYDIWHVDSSKNKVSLFLEKDLYYPIRMFFNNREYDSSLDLSFSVNGATDQISDFSGYLYSVPDQPDTCPAHIGYDTTCR
glycan array binding signal (z-score) [1]: 0.104 | glycan array binding signal (z-score) [2]: -0.803 | glycan array binding signal (z-score) [3]: -0.745 | glycan array binding signal (z-score) [4]: -0.907 | glycan array binding signal (z-score) [5]: -0.291 | glycan array binding signal (z-score) [6]: 3.23 | glycan array binding signal (z-score) [7]: 0.027 | glycan array binding signal (z-score) [8]: -0.335 | glycan array binding signal (z-score) [9]: 0.217 | glycan array binding signal (z-score) [10]: -1.26 | glycan array binding signal (z-score) [11]: -0.07 | glycan array binding signal (z-score) [12]: 0.229 | glycan array binding signal (z-score) [13]: 0.144 | glycan array binding signal (z-score) [14]: -0.126 | glycan array binding signal (z-score) [15]: 0.071 | glycan array binding signal (z-score) [16]: -1.04 | glycan array binding signal (z-score) [17]: -0.217 | glycan array binding signal (z-score) [18]: 0.387 | glycan array binding signal (z-score) [19]: -0.417
